Experimental data published in publication PMC10668032.
The other results are listed elsewhere or left out. At the low end of the ranking the order means little.

Biological target: SIX1 homeodomain (reference allele) (UniProt Q15475)
Experiment: universal protein binding microarray
Conditions: Universal all-10-mer PBM (8x60K, AMADID 030236), 300 nM GST-tagged protein, Alexa Fluor 488 anti-GST; buffer, salt, pH and temperature not stated; high values mean tight binding; most listed sequences are background and not binding sites; double strand, one strand shown

Row | Sequence | binding signal
1 | GTCACCTA | -0.289 E-score
2 | CCTCTTCA | -0.0697 E-score
3 | CTAGATGA | 0.0531 E-score
4 | CACCGCCC | 0.232 E-score
5 | CCCTCCGG | 0.0883 E-score
6 | CAATCTAC | -0.0217 E-score
7 | ACGGGTCC | -0.261 E-score
8 | CCTTGCCC | -0.0136 E-score
9 | AGCGGTCA | -0.0652 E-score
10 | CTATATGA | 0.0957 E-score
11 | AGTAACTG | -0.199 E-score
12 | TCCAATAA | -0.0192 E-score
13 | ACTAGTTC | -0.104 E-score
14 | AGGGATTC | 0.0688 E-score
15 | CTCGAAGA | -0.0378 E-score
16 | ACGCTCAT | -0.189 E-score
17 | CCCTCAAA | -0.0731 E-score
18 | CGCCCCAG | -0.0693 E-score
19 | ACGCCCCG | 0.019 E-score
20 | CACGCCCA | -0.0229 E-score
21 | AAAATCTC | -0.169 E-score
22 | CGATGATC | 0.379 E-score
23 | CCATTCTC | -0.114 E-score
24 | GCTGGTCA | -0.182 E-score
25 | GCTTCGAC | -0.175 E-score

Row | Sequence | binding signal
26 | CTGCCTTA | -0.0395 E-score
27 | CCGAGGTC | -0.145 E-score
28 | GCCATCCA | -0.0916 E-score
29 | CCCGCACA | 0.164 E-score
30 | CCTGTACC | -0.132 E-score
31 | GGCCAGAC | -0.139 E-score
32 | ATATCATA | 0.442 E-score
33 | ACGCGGGC | 0.12 E-score
34 | AACCCCAT | 0.0437 E-score
35 | CGTGGTAA | -0.0477 E-score
36 | AAATGGCG | -0.128 E-score
37 | GGCACACC | 0.00434 E-score
38 | ACCCGTTC | -0.143 E-score
39 | CAGGAGCA | -0.188 E-score
40 | CGTTGCAA | -0.111 E-score
41 | CTCGTTTA | -0.0218 E-score
42 | ATATATCA | 0.4 E-score
43 | ACACGTGT | -0.12 E-score
44 | AGCGGGGC | -0.106 E-score
45 | GATCAAAA | 0.234 E-score
46 | AACAAGAC | 0.046 E-score
47 | AGTAGCAG | -0.0638 E-score
48 | CTCATACC | 0.171 E-score
49 | AGCCTTAC | -0.304 E-score
50 | GCTTGTTA | -0.15 E-score

Row | Sequence | binding signal
51 | ACTTCTAT | 0.0346 E-score
52 | GAGCTCTA | 0.0517 E-score
53 | CAATAGAA | -0.23 E-score
54 | ATTCTTAC | -0.152 E-score
55 | CTTACGAA | -0.183 E-score
56 | GTGCGGCA | -0.249 E-score
57 | CACAGATG | -0.00132 E-score
58 | CATTCGTA | 0.0432 E-score
59 | GGGGACGA | -0.0701 E-score
60 | GGTAGGAC | -0.145 E-score
61 | AATAATCA | 0.00143 E-score
62 | TCTCACCA | 0.259 E-score
63 | CCAGGGGA | 0.222 E-score
64 | ATATCAAA | 0.374 E-score
65 | CGCAACCC | -0.13 E-score
66 | CTCTCCAA | -0.0598 E-score
67 | AGTATCGC | 0.435 E-score
68 | AACATGAC | -0.262 E-score
69 | GATCGAAA | 0.115 E-score
70 | ATGAACGC | -0.121 E-score
71 | ACACGGAG | -0.00357 E-score
72 | AACCGCGA | 0.0972 E-score
73 | AGCTCCTG | -0.134 E-score
74 | AATGAGTC | -0.0364 E-score
75 | AAGCAAGA | -0.228 E-score

Row | Sequence | binding signal
76 | ACAAAAAT | -0.141 E-score
77 | ACCCAATG | -0.0245 E-score
78 | AGTAGAAT | -0.0541 E-score
79 | AGATAGTC | 0.172 E-score
80 | GGACCGTA | -0.164 E-score
81 | TCCCCCAA | 0.0285 E-score
82 | AACGGCTG | -0.179 E-score
83 | ACTGTAAC | -0.121 E-score
84 | CTGTGGAA | -0.146 E-score
85 | CCAGGGAC | -0.19 E-score
86 | AACTTTGA | -0.201 E-score
87 | CCGATAAG | -0.0758 E-score
88 | GCTAAGAA | -0.0737 E-score
89 | ATATGGAT | 0.371 E-score
90 | AGGCAGCA | -0.211 E-score
91 | AAGACTCG | -0.253 E-score
92 | AAGTTTAT | -0.177 E-score
93 | GATGTGGC | -0.113 E-score
94 | ATTCCGAA | -0.0396 E-score
95 | CATATGGC | 0.0938 E-score
96 | CGAGTATA | 0.29 E-score
97 | CGACGCCG | -0.00713 E-score
98 | AGAGTTAT | 0.0447 E-score
99 | AAGAACGG | -0.00726 E-score
100 | AAGATGGC | -0.202 E-score

Row | Sequence | binding signal
101 | AACCTGAA | -0.242 E-score
102 | GCCTACCA | -0.22 E-score
103 | CATTCTAA | -0.0323 E-score
104 | GGCGGACC | -0.142 E-score
105 | CGAAAGAA | -0.207 E-score
106 | CAAGTTAC | -0.0658 E-score
107 | ACCCAACA | 0.079 E-score
108 | TCGCCCGA | -0.184 E-score
109 | CCACGTGA | -0.103 E-score
110 | GTACGACA | -0.0887 E-score
111 | AAGCAGCA | -0.2 E-score
112 | CCTAGATC | 0.228 E-score
113 | CGTCAATC | -0.0216 E-score
114 | GGCATCCA | -0.00015 E-score
115 | CGGCCAAC | -0.0229 E-score
116 | CCGACACG | 0.0696 E-score
117 | GAGTGGGA | 0.045 E-score
118 | AAGGCGGG | -0.0477 E-score
119 | GCGTGTAC | 0.0568 E-score
120 | CAATCTTC | 0.0677 E-score
121 | GTGGACAA | -0.0874 E-score
122 | CCCTGAAG | -0.0367 E-score
123 | TACAGCTA | 0.0416 E-score
124 | AACTGTCA | -0.21 E-score
125 | AGCTATGG | -0.142 E-score

Row | Sequence | binding signal
126 | CCGTCGTC | -0.128 E-score
127 | AAGTGTCG | -0.0902 E-score
128 | CGACGTAG | -0.106 E-score
129 | CAGAATGG | -0.102 E-score
130 | CATAAGTA | 0.00456 E-score
131 | AACTTTTA | -0.285 E-score
132 | ATTCTGCG | -0.0215 E-score
133 | CCGTTCTA | 0.0126 E-score
134 | GAGCAAGC | -0.241 E-score
135 | ATATGTGG | 0.209 E-score
136 | TCCCTGCA | -0.132 E-score
137 | AATTGACG | -0.266 E-score
138 | AGAATCCG | 0.163 E-score
139 | AGGTTAAT | -0.155 E-score
140 | GAAGTGCC | -0.304 E-score
141 | CCCCATCC | 0.102 E-score
142 | ACGATTGA | -0.137 E-score
143 | CGTTAGCC | -0.0912 E-score
144 | ACTTGCAC | -0.0381 E-score
145 | CGCAGTAA | -0.268 E-score
146 | ATGGTCGC | -0.192 E-score
147 | AATGCATT | -0.28 E-score
148 | CGTAAGTA | 0.0132 E-score
149 | CCAACCGC | -0.0414 E-score
150 | CTGATCTA | 0.257 E-score

Row | Sequence | binding signal
151 | ATGTTATG | -0.0688 E-score
152 | ATGGGAAT | -0.0522 E-score
153 | CCACAGCA | 0.0921 E-score
154 | CGATGCTC | -0.0964 E-score
155 | ACTGCTCG | -0.0475 E-score
156 | GCCCTAAC | -0.191 E-score
157 | CCCTTCAC | -0.0811 E-score
158 | CCAGTAAG | -0.0864 E-score
159 | GCCGGGTA | 0.0702 E-score
160 | GGTTGCCA | -0.135 E-score
161 | AATCACGT | -0.0538 E-score
162 | CATCCCGC | -0.0472 E-score
163 | AGTTGGAC | -0.257 E-score
164 | GGTAGCTA | -0.0338 E-score
165 | ATATCCCC | 0.457 E-score
166 | ATTGGGAC | -0.171 E-score
167 | ACAGACAA | -0.103 E-score
168 | CACCTTTC | -0.118 E-score
169 | GGAAATCA | -0.14 E-score
170 | ACGTCTTA | 0.0566 E-score
171 | CCTAGTCG | -0.0898 E-score
172 | CACGGCAG | -0.0382 E-score
